Experimental findings from the supplement of paper PMC9334596 are described below.

Where “and” joins values, the source holds several entries; their conditions need not be identical. Equal values may be shown once. Over roughly 5,300 compounds, “PER2::LUC luminescence relative to vehicle control” has its median near 0.96; the highest 2% begin near 1.3. The list shows a part of the results.

In this assay the test system is mPer2Luc MEF. As to the kind of experiment: PER2::LUC luminescence relative to vehicle control (fold of vehicle); higher = higher PER2::LUC reporter signal. To be noted: 10 µM. In a few lines: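 Compounds from commercial libraries were added at 10 μM to 384-well plates seeded 48 h earlier with ~3000 mPer2Luc mouse embryonic fibroblasts per well. The cells were kept in DMEM with 10% FBS at 37 °C and 5% CO2. Luminescence was read with ONE-Glo 24 h and 30 h after treatment, then an alamarBlue viability assay was run. Values are PER2::LUC luminescence relative to vehicle control, as fold change.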

Regarding `O=C(c1ccc(OCCN2CCCCC2)cc1)c1c(-c2ccc(O)cc2)sc2cc(O)ccc12`, the “PER2::LUC luminescence” value (time after treatment 24 h) was 0.35 and the “PER2::LUC luminescence” value (time after treatment 30 h) is 0.69.

For the molecule `O=C(/C=C/c1ccccc1)NC(NC(=S)Nc1ccc(Cl)cc1)C(Cl)(Cl)Cl` (centres undefined), the “PER2::LUC luminescence” value was 0.96 (time after treatment 24 h) and 1.16 (time after treatment 30 h).

Regarding `NCc1c[nH]c(=S)n1[C@H]1CCc2c(F)cc(F)cc2C1`, the “PER2::LUC luminescence” value reads like this: (time after treatment 24 h) 0.941; (time after treatment 30 h) 1.04.

Consider `C[C@@H]1CC2C3C[C@H](F)C4=CC(=O)C=C[C@]4(C)[C@@]3(F)[C@@H](O)C[C@]2(C)[C@@]1(O)C(=O)COC(=O)C(C)(C)C` (some centres undefined), for which the “PER2::LUC luminescence” value worked out at 0.848 (time after treatment 24 h) and 1.04 (time after treatment 30 h).

As for `Cn1c(SCC(=O)N2CCC[C@H]2C(=O)Nc2ccccc2-c2ccccc2)nc2ccccc21`, the “PER2::LUC luminescence” value was determined as 1.16 (time after treatment 24 h) and 1.07 (time after treatment 30 h).

Consider `O=C(O)CCc1nc2ccccc2[nH]1`, for which the “PER2::LUC luminescence” value came to 0.977 (time after treatment 24 h) and 0.934 (time after treatment 30 h).

With `Nc1nccs1`, the “PER2::LUC luminescence” value was found to be 1.03 (time after treatment 24 h) and 0.912 (time after treatment 30 h).

As to `NC(=O)c1cccnc1`, the “PER2::LUC luminescence” value runs as follows: (time after treatment 24 h) 0.907 and 1.02; (time after treatment 30 h) 0.911 and 1.21.

Turning to `O=S(=O)(NC1CCNCC1)c1cc(S(=O)(=O)c2ccccc2)ccc1C(F)(F)F`, the “PER2::LUC luminescence” value is 0.906 (time after treatment 24 h) and 0.927 (time after treatment 30 h).

With `CCCc1nc(C(C)(C)O)c(C(=O)OCc2oc(=O)oc2C)n1Cc1ccc(-c2ccccc2-c2nnn[nH]2)cc1`, the “PER2::LUC luminescence” value (time after treatment 24 h) amounted to 0.605 and the “PER2::LUC luminescence” value (time after treatment 30 h) worked out at 0.653.

As for `Cn1c(=O)c2c(ncn2CC(O)CO)n(C)c1=O` (centres undefined), the “PER2::LUC luminescence” value by setting is: (time after treatment 24 h) 0.855 and 0.96; (time after treatment 30 h) 1.08 and 0.885.

With `C=CC1=C(C)C2=CC3=NC(=C(CC(=O)O)C4=NC(=C(C)C4=C(O)O)C=c4[nH]c(c(C)c4CC)=CC1=N2)C(CCC(=O)O)C3C` (centres undefined), the “PER2::LUC luminescence” value came to 0.911 (time after treatment 24 h) and 0.984 (time after treatment 30 h).

On to `Cc1c(Cn2c(C)nc3c(C(=O)O)cc(N4CCOCC4)cc32)cccc1C(F)(F)F`, for which the “PER2::LUC luminescence” value (time after treatment 24 h) was 0.961 and the “PER2::LUC luminescence” value (time after treatment 30 h) was 0.924.

On to `O=C(NCc1ccc(Oc2ccccc2)cc1)c1nc(-c2cc(Br)c(O)c(Br)c2)no1`, for which the “PER2::LUC luminescence” value (time after treatment 24 h) was 1.03 and the “PER2::LUC luminescence” value (time after treatment 30 h) worked out at 0.984.

As to `CCCCCCCCCCCCCCCC[N+](C)(C)C`, the “PER2::LUC luminescence” value (time after treatment 30 h) is 0.191 and 0.0662.

Regarding `Nc1cc(F)ccc1NC(=O)c1ccc(CNC(=O)/C=C/c2cccnc2)cc1`, the “PER2::LUC luminescence” value reads like this: (time after treatment 24 h) 0.728; (time after treatment 30 h) 0.71.

Regarding `NC(=O)C1(N2CCCCC2)CCN(CCCC(=O)c2ccc(F)cc2)CC1`, the “PER2::LUC luminescence” value (time after treatment 24 h) stood at 0.914 and the “PER2::LUC luminescence” value (time after treatment 30 h) is 1.08.

`CNC1(C)C2CCC(C2)C1(C)C` (centres undefined): the “PER2::LUC luminescence” value reads like this: (time after treatment 24 h) 0.974; (time after treatment 30 h) 1.17.

On to `N#CC(=C(/N)Sc1ccccc1N)/C(C#N)=C(\N)Sc1ccccc1N`, for which the “PER2::LUC luminescence” value runs as follows: (time after treatment 24 h) 0.834; (time after treatment 30 h) 0.658.

For the molecule `CC1=C(C(=O)O)N2C(=O)[C@@H](NC(=O)[C@H](N)c3ccc(O)cc3)[C@H]2SC1`, the “PER2::LUC luminescence” value (time after treatment 24 h) came to 0.974 and the “PER2::LUC luminescence” value (time after treatment 30 h) amounted to 0.959.

As for `NC(=O)[C@@H](CCC(F)(F)F)N(Cc1ccc(-c2ncon2)cc1F)S(=O)(=O)c1ccc(Cl)cc1`, the “PER2::LUC luminescence” value runs as follows: (time after treatment 24 h) 1.28; (time after treatment 30 h) 1.03.

With `COc1ccc(CNCc2cccc3ccccc23)cc1`, the “PER2::LUC luminescence” value runs as follows: (time after treatment 24 h) 1.03; (time after treatment 30 h) 0.982.

Turning to `O=C(O)CCC/C=C\C[C@@H]1[C@@H](/C=C/[C@H](O)C2Cc3ccccc3C2)[C@@H](F)C[C@@H]1O`, the “PER2::LUC luminescence” value (time after treatment 24 h) worked out at 0.81 and the “PER2::LUC luminescence” value (time after treatment 30 h) is 0.935.

`Cc1[nH]c(/C=C2\C(=O)Nc3ccc(S(=O)(=O)Cc4c(Cl)cccc4Cl)cc32)c(C)c1C(=O)N1CCC[C@@H]1CN1CCCC1`: the “PER2::LUC luminescence” value (time after treatment 24 h) amounted to 0.646 and the “PER2::LUC luminescence” value (time after treatment 30 h) amounted to 0.685.

For the molecule `C=CCN1CCCC1CNC(=O)c1cc2nn[nH]c2cc1OC` (centres undefined), the “PER2::LUC luminescence” value by setting is: (time after treatment 24 h) 0.923; (time after treatment 30 h) 0.938.

`OC[C@H]1O[C@@H](O[C@H]2[C@H](O)[C@@H](O)[C@@H](O)O[C@@H]2CO)[C@H](O)[C@@H](O)[C@@H]1O`: the “PER2::LUC luminescence” value (time after treatment 24 h) is 0.982 and the “PER2::LUC luminescence” value (time after treatment 30 h) turned out to be 0.927.

As for `Nc1nc(Nc2ccc(S(N)(=O)=O)cc2)nn1C(=O)c1c(F)cccc1F`, the “PER2::LUC luminescence” value runs as follows: (time after treatment 24 h) 0.924; (time after treatment 30 h) 0.712.

Take `CC(C)c1onc(-c2c(Cl)cccc2Cl)c1COc1ccc(/C=C/c2cccc(C(=O)O)c2)c(Cl)c1`: the “PER2::LUC luminescence” value is 1.86 (time after treatment 24 h) and 2.03 (time after treatment 30 h).

Take `COc1cc(C)c2c(=O)cc(-c3ccccc3)oc2c1`: the “PER2::LUC luminescence” value is, setting by setting: (time after treatment 24 h) 1.64; (time after treatment 30 h) 1.76.

With `CCCCCCOc1nsnc1C1=CCCN(C)C1`, the “PER2::LUC luminescence” value runs as follows: (time after treatment 24 h) 0.889; (time after treatment 30 h) 0.859.

As for `N[C@@H](CSS(=O)(=O)O)C(=O)O`, the “PER2::LUC luminescence” value worked out at 1.11 (time after treatment 24 h) and 0.979 (time after treatment 30 h).

Turning to `CC(C)(Oc1ccc(C2CC2(Cl)Cl)cc1)C(=O)O` (centres undefined), the “PER2::LUC luminescence” value runs as follows: (time after treatment 24 h) 0.924; (time after treatment 30 h) 0.959.

Regarding `c1ccc2c(-c3cnn4cc(-c5ccc(N6CCNCC6)cc5)cnc34)ccnc2c1`, the “PER2::LUC luminescence” value (time after treatment 24 h) stood at 0.022 and the “PER2::LUC luminescence” value (time after treatment 30 h) was found to be 0.018.

In the case of `O=c1c(N=Nc2ccc(CS(=O)(=O)O)cc2)c(-c2ccc(C[N+](=O)[O-])cc2)[nH]n1-c1ccccc1`, the “PER2::LUC luminescence” value (time after treatment 24 h) turned out to be 1.09 and the “PER2::LUC luminescence” value (time after treatment 30 h) stood at 1.08.

`O=C(O)[C@@H](S)[C@@H](S)C(=O)O`: the “PER2::LUC luminescence” value (time after treatment 24 h) was 1.05 and the “PER2::LUC luminescence” value (time after treatment 30 h) came to 1.07.

For `CCCCNc1ncc(-c2ccc(CN3CCOCC3)cn2)c(NC2CCC(O)CC2)n1` (centres undefined), the “PER2::LUC luminescence” value (time after treatment 24 h) is 0.988 and the “PER2::LUC luminescence” value (time after treatment 30 h) amounted to 0.977.

Regarding `CCOc1nc2cccc(C(=O)OC(C)OC(=O)OC3CCCCC3)c2n1Cc1ccc(-c2ccccc2-c2nn[nH]n2)cc1` (centres undefined), the “PER2::LUC luminescence” value is 1.03 and 1 (time after treatment 24 h); 1 (time after treatment 30 h).

As to `Nc1ccc(S(N)(=O)=O)cc1`, the “PER2::LUC luminescence” value (time after treatment 24 h) was found to be 0.96 and the “PER2::LUC luminescence” value (time after treatment 30 h) is 0.827.

As for `Nc1ncnc2c1ncn2[C@H]1C[C@H](O)[C@@H](CO)O1`, the “PER2::LUC luminescence” value came to 1.03 (time after treatment 24 h) and 1.07 (time after treatment 30 h).

Consider `CC1CCN(CCCC(=O)c2ccc(F)cc2)CC1`, for which the “PER2::LUC luminescence” value runs as follows: (time after treatment 24 h) 0.977 and 0.957; (time after treatment 30 h) 0.871 and 0.803.

Turning to `Clc1ccc(-c2nc3sccn3c2/C=N/OCc2ccc(Cl)c(Cl)c2)cc1`, the “PER2::LUC luminescence” value (time after treatment 24 h) turned out to be 0.997 and the “PER2::LUC luminescence” value (time after treatment 30 h) was found to be 1.01.

Take `CCN1CCC[C@H]1CNC(=O)c1cc(S(N)(=O)=O)ccc1OC`: the “PER2::LUC luminescence” value runs as follows: (time after treatment 24 h) 1.09 and 1.12; (time after treatment 30 h) 0.964 and 1.08.

On to `COc1c(O)cc(O)c2c(=O)cc(-c3ccccc3)oc12`, for which the “PER2::LUC luminescence” value was 1.03 (time after treatment 24 h) and 1.02 (time after treatment 30 h).

Turning to `O=c1cc(O)cc(/C=C/c2ccc(O)c(O)c2)o1`, the “PER2::LUC luminescence” value by setting is: (time after treatment 24 h) 1.08; (time after treatment 30 h) 0.921.

Regarding `Cc1ccc(NC(=S)NNc2c([N+](=O)[O-])cc(C(F)(F)F)cc2[N+](=O)[O-])cc1Cl`, the “PER2::LUC luminescence” value worked out at 0.722 (time after treatment 24 h) and 0.87 (time after treatment 30 h).

As for `CCCNS(=O)(=O)Nc1ncnc(OCCOc2ncc(Br)cn2)c1-c1ccc(Br)cc1`, the “PER2::LUC luminescence” value is, setting by setting: (time after treatment 24 h) 0.986; (time after treatment 30 h) 1.01.

For `CC(CCc1ccc(O)cc1)NCCc1ccc(O)c(O)c1` (centres undefined), the “PER2::LUC luminescence” value (time after treatment 24 h) amounted to 0.614 and the “PER2::LUC luminescence” value (time after treatment 30 h) was 0.59.

Take `[N-]=[N+]=N[C@]1(CO)O[C@@H](n2ccc(N)nc2=O)[C@@H](O)[C@@H]1O`: the “PER2::LUC luminescence” value runs as follows: (time after treatment 24 h) 1.06; (time after treatment 30 h) 0.915.

`CCOCc1cc(OC)c(-c2ccc(C[C@H](NC(=O)c3c(F)cccc3F)C(=O)O)cc2)c(OC)c1`: the “PER2::LUC luminescence” value is 0.99 (time after treatment 24 h) and 1.02 (time after treatment 30 h).

In the case of `CC(=O)c1ccc(NS(C)(=O)=O)c(Oc2ccc(F)cc2F)c1`, the “PER2::LUC luminescence” value runs as follows: (time after treatment 24 h) 1.06; (time after treatment 30 h) 1.

`N[C@@H](CCC(=O)N[C@@H](CSN=O)C(=O)NCC(=O)O)C(=O)O`: the “PER2::LUC luminescence” value was 1.1 (time after treatment 24 h) and 1.08 (time after treatment 30 h).

As to `NC(=O)c1ncn(C2OC(COP(=O)(O)O)C(O)C2O)c1N` (centres undefined), the “PER2::LUC luminescence” value reads like this: (time after treatment 24 h) 1.36; (time after treatment 30 h) 1.3.

For `O=c1cc(-c2ccccc2)oc2ccc(O)cc12`, the “PER2::LUC luminescence” value is 1.47 (time after treatment 24 h) and 1.89 (time after treatment 30 h).

Regarding `CCC(C)(C)c1ccc(CC(C)CN2C[C@@H](C)O[C@@H](C)C2)cc1` (some centres undefined), the “PER2::LUC luminescence” value is 0.968 and 0.591 (time after treatment 24 h); 1.04 and 0.891 (time after treatment 30 h).

`COc1cnc(-n2cnc(C)n2)c2[nH]cc(C(=O)C(=O)N3CCN(C(=O)c4ccccc4)CC3)c12`: the “PER2::LUC luminescence” value (time after treatment 24 h) was determined as 1.11 and the “PER2::LUC luminescence” value (time after treatment 30 h) was 1.02.
